According to patent publication US20230094463A1, “ANTIBODIES THAT DISRUPT THE INTERACTION OF GAL3 AND INSULIN RECEPTOR OR INTEGRINS AND METHODS OF USE THEREOF” (TrueBinding, Inc., priority 2019, published 2023):

What was measured:
[1] = target: T1, Gal3 peptides (SEQ ID NOs: 3-26) (Homo sapiens, UniProt P17931); test: Gal3 peptide library binding ELISA (epitope mapping); conditions: for binding to Gal3 Peptide 4: Peptide 4 (SEQ ID NO: 6), amino acids 31-50 of Gal3; for binding to Gal3 Peptide 6: Peptide 6 (SEQ ID NO: 8); for binding to Gal3 Peptide 7: Peptide 7 (SEQ ID NO: 9), amino acids 61-80 of Gal3
T1 construct: a library of 24 amino acid peptides representing portions of Gal3; purchased LifeTein custom order
Method: To identify the epitopes to which Gal3 antibodies with and without Gal3-INSR blocking activity bound, a library of 24 amino acid peptides representing portions of Gal3, depicted in FIG. 27, was produced and the ability of each peptide to bind Gal3 antibodies was evaluated by ELISA. At least 2 μg/ml of hGal3 peptide in 50 μl of PBS or 0.1 μg/ml of full-length human Gal3 protein (GenScript) and human Galectin-3 protein (Acro Biosystems, GA3-H5129) were diluted in PBS (Corning, 21-030-CM) to concentrations of at least 2 μg/ml or 0.1 μg/ml, respectively, and added to the wells of a 96-well ELISA plate (Thermo Fisher, 44-2404-21). After incubating the plate at 4° C. overnight, the plate was washed three times with PBST (PBS with 0.05% Tween 20 [VWR, 0777]). The plate was then blocked for an hour with 2% BSA (EMD Millipore, 126609) in PBST at room temperature with gentle rocking. Thereafter, the 2% BSA in PBST was discarded and human Galectin-3 hybridoma supernatants or antibodies were diluted in 2% BSA in PBST to concentrations of at least 0.1 μg/ml and added to the wells. The plate was incubated for an hour at room temperature with gentle rocking and then washed three times with PBST. Afterwards, Goat Anti-Mouse IgG-HRP (Jackson ImmunoResearch, 115-036-1461) or Goat Anti-Rat IgG HRP (Abcam, ab205720) diluted in 2% BSA in PBST (1:4000) were added to the wells. The plate was incubated for 30 minutes to 1 hour at room temperature with gentle rocking and then washed three times with PBST. TMB substrate (Thermo Scientific, 34029) was then added to each well. The reaction was stopped with 1M HCl (JT Baker, 5620-02) and read using a plate reader (Molecular Devices) at absorbance of 450 nm.
Human Gal3 peptides (LifeTein, custom order) and human Gal3 proteins (R&D Systems, 8259-GA; TrueBinding, QCB200349) were diluted in PBS (Corning, 21-030-CM) to concentrations of at least 100 μg/mL (peptides) or 1 μg/mL (proteins), and added to the wells of several 96-well ELISA plates (Thermo Fisher, 44-2404-21). After incubating the plates at 4° C. overnight, the plates were washed three times with PBST (PBS with 0.05% Tween 20 [VWR, 0777]). The plates were then blocked for an hour with 2% BSA (EMD Millipore, 126609) in PBST at room temperature with gentle rocking. Thereafter, the 2% BSA in PBST was discarded and Gal3-binding antibodies (reformatted hIgG4 [S228P]) were diluted in 2% BSA in PBST to concentrations of 5 μg/mL and added to the wells. The plates were incubated for an hour at room temperature with gentle rocking and then washed three times with PBST. Afterwards, Peroxidase AffiniPure F(ab′)2 Fragment Goat Anti-Human IgG (H+L) polyclonal antibody (Jackson ImmunoResearch, 109-036-003), was diluted in 2% BSA in PBST (1:4000) and added to the wells. The plates were incubated for 1 hour at room temperature with gentle rocking and then washed three times with PBST. TMB substrate (Thermo Scientific, 34029) was then added to each well. The reaction was stopped with 1M HCl (JT Baker, 5620-02) and read using a plate reader (Molecular Devices) at absorbance of 450 nm.

human Gal3 = target: T2, human Gal3 (Homo sapiens, UniProt P17931); test: Antibody binning assays (competition for binding to Gal3); conditions: binning per Examples 3 and 18
T2 construct: His; purchased AcroBio GA3-H5129
T2 sequence (P17931 whole entry): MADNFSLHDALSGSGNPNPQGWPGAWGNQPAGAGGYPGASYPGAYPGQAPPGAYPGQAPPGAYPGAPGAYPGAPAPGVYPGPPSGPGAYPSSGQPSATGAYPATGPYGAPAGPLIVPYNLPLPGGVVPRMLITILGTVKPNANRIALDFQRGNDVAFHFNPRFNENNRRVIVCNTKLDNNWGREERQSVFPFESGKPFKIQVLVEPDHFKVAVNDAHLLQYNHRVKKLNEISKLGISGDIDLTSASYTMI
Method: To determine whether Gal3-binding antibodies with Gal3-INSR blocking activity bind to the same or overlapping regions of the Gal3 molecule, antibody binning assays were performed to assess the ability of antibodies to simultaneously bind Gal3. Amine-reactive probes were loaded onto a Gator biosensor (Probe Life, Palo Alto, Calif.), equilibrated in dH20 for 60 seconds, dipped into 100 μl EDC 0.2M/NHS 0.05M activation buffer for 30 seconds, then dipped into a solution of […] human Gal3-His in 10 mM NaOAc buffer, pH 5 until binding was saturated, and quenched in 1 M ethanolamine pH 8.5 for 300 seconds. Following Gal3-His loading, tips were dipped in 20 μg/mL saturating antibody, then successively dipped into 5 μg/mL competing antibody.
The epitope binning assay was done in a sandwich format on the high-throughput SPR-based Carterra LSA unit (CarterraBio, Salt Lake City, Utah). First, the purified antibodies were diluted to 10 μg/ml concentration in 10 mM NaOAc (pH 5.0) and then were covalently coupled via amine group to HC200M chip activated by EDC and S-NHS to immobilize antibodies to different positions of a 384-spot array. One hundred thirty-eight binning cycles were run on the array of immobilized antibodies. In each cycle, first, human Gal3 (AcroBio GA3-H5129) was injected over the entire array to bind to different antibodies (primary antibody), followed by one antibody (secondary antibody) selected among the panel of 150 anti-GAL3 antibodies tested. At the end of each cycle, the array was regenerated by 10 mM Glycine (pH 2.0) to remove bound antigen and secondary antibody from the array. The data analysis was done using the Epitope software by CarterraBio.

Molecule | binding to Gal3 Peptide 4 [1] | epitope bin (competitive binding to Gal3) (human Gal3) | binding to Gal3 Peptide 6 ([1]; amino acids 51-70 of Gal3) | binding to Gal3 Peptide 6 ([1]; amino acids 51-70 of Gal3, listed as 3B11.2D2) | binding to Gal3 Peptide 7 [1]
4G2.2G6: anti-Gal3 monoclonal antibody (antibody, V domains shown) VH: QIQLVQSGPDLKKPGETVKISCKASGYTFTTYVMSWVKQAPGKDLKWMGWINTHSGVPTYADDFKGRFDFSLETSANTAFLQINNLKNEDTATYFCTRDGNDGDAMDNWGQGTSVTVSS VL: DVVMTQTPLTLSVTIGQPASISCKSSQSLLYTDGKTYLSWFLQRPGQSPKRLIYLVSKLDSGVPDRFSGSGSGTDFTLKISRVEAEDLGVYYCLQSTHFPLTFGAGTKLEVK | bind and bound | bin 6 |  |  | 
3B11.2G2: anti-Gal3 monoclonal antibody (antibody, V domains shown) VH: QIQLVQSGPELKKPGETVKISCKTSGYKFKTYVMSWVKQAPGKALKWMGWINTYSGVPTYADDFKGRFAFSLETSASTAYLEIINLKNEDTATYFCARDGNYGDPMDYWGQGTSVTVSS VL: DVVMTQTPLTLSVAIGQPASISCKSSQSLLYTNGKTYLNWLLQRPGQSPKRLIYLVSKLDSGVPDRFSGSGSGTDFTLKISRVEAEDLGVYYCLQSTHFPLTFGAGTKLELK | bind and bound | bin 7 | bound | bind and bound | bound

Now from value to molecule:

binding to Gal3 Peptide 4 [1] | epitope bin (competitive binding to Gal3) (human Gal3) | binding to Gal3 Peptide 6 ([1]; amino acids 51-70 of Gal3) | binding to Gal3 Peptide 6 ([1]; amino acids 51-70 of Gal3, listed as 3B11.2D2) | binding to Gal3 Peptide 7 [1] | Molecule
 | bin 8 | bind and bound |  | bind and bound | 14H10.2C9: anti-Gal3 monoclonal antibody (antibody, V domains shown) VH: QIQLVQSGPELKKPGETVKISCKASGYTFTTYGMGWVKQAPGKDLKWMGWINTYSGVPTYADDFKGRFAFSLETSASTAYLQISNLKNEDTATYFCSTPYEYDGAYWGQGTLVTVSA VL: DVVMTQTPLTLSVTIGQPASISCKSSQSLFDSDGKTYLNWLLQRPGQSPKRLIYLVSKLDSGVPDRFTGSGSGTDFTLKISRVEAEDLGVYYCWQGTHFPLTFGAGTKLEMK
 |  | bind and bound |  | bind and bound | 13H12.2F8: anti-Gal3 monoclonal antibody (antibody, V domains shown) VH: QIQLVQSGPELKKPGETVKISCKASGYTFTTYGMSWVKQAPGKGLKWMGWINTYSGVPTYADDFKGRFAFSLETSASTAYLQINNLKNEDTATYFCAVPYEYDGAYWGQGTLVTVSA VL: DVVMTQTPLTLSVTIGQPASISCKSSQSLFHSDGKTYLNWLLQRPGQSPKRLIYLVSKLDSGVPDRFTGSGSGTDFTLKISRVEAEDLGVYYCWQGTHFPLTFGAGTKLEMK
